What was measured:
Test in all cases: cell-based or functional assay
[1] = molecular target: T1, IL-22 receptors on COLO205 cells (UniProt Q8N6P7 16-574; Q08334 20-325, limits assumed)
T1 sequence (looked up) 1: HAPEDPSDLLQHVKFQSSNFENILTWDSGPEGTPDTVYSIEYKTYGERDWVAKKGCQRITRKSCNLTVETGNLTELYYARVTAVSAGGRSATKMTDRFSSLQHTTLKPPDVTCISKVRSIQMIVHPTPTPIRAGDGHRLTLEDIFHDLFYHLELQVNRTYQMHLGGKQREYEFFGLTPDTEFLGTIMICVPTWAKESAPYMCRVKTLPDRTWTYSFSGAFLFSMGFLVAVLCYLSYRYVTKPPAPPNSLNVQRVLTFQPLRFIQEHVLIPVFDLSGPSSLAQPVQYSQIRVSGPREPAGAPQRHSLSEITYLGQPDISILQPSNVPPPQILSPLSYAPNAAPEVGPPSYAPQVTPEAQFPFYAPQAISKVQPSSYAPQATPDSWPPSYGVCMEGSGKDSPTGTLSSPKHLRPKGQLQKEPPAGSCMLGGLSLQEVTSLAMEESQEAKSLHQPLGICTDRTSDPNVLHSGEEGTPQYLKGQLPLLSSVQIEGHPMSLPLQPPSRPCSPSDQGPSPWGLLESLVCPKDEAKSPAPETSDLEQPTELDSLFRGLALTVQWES
T1 sequence (looked up) 2: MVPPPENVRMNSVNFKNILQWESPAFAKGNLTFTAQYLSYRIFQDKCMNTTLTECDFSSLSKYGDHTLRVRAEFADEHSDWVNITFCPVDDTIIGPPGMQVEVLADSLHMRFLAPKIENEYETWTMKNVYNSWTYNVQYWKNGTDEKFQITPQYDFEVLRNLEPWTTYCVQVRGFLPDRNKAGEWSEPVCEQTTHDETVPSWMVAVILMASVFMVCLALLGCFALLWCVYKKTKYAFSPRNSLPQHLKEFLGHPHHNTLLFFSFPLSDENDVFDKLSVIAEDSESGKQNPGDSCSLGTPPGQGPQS

[2] = molecular target: T1, IL-22 receptors on COLO205 cells; remark: listed apart in the source
[3] = molecular target: T2, IL-12, composed of p40 and p35 (human (the free comparator is printed …, UniProt P29460 23-328; P29459 23-219)
T2 sequence 1: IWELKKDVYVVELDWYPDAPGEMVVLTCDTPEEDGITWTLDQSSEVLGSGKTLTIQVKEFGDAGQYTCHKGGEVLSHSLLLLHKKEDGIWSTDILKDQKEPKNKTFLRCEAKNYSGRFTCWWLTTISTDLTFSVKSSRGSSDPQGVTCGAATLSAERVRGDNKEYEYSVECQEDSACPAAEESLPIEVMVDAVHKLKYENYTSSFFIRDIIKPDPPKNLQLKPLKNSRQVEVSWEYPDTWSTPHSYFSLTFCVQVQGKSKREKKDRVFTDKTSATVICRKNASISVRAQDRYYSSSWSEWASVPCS
T2 sequence 2: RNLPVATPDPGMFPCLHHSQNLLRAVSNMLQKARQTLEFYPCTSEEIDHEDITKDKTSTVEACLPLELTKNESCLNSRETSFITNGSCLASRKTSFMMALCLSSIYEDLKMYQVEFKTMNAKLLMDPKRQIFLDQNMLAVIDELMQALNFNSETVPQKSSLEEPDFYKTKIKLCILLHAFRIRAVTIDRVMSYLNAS

B1: 087B03-L1-C1-L3-IL22 (other)
light: QAALTQPASVSGSPGQSITISCTGASGDVGAYNFVSWYQQHPGKAPKLIIYDVNKRPSGVSNRFSGSKSGNTASLTISGLQAEDEADYYCSSYTSTFSVVFGGGTKLTVLGQPKAAPSVTLFPPSSEELQANKATLVCLISDFYPGAVTVAWKADSSPVKAGVETTTPSKQSNNKYAASSYLSLTPEQWKSHRSYSCQVTHEGSTVEKTVAPTECS
heavy: EVQLVESGGGVVRPGGSLRLSCAASGFTFDDYGMNWVRQAPGKGLEWVSGVNWNGGTRDYAASVKGRFTISRDNAKNSLYLQMNSLRAEDTALYHCARGWYSGAAWNMGYWGRGTLVTVSSTSTSGRSANPRGASTKGPSVFPLAPSSKSTSGGTAALGCLVKDYFPEPVTVSWNSGALTSGVHTFPAVLQSSGLYSLSSVVTVPSSSLGTQTYICNVNHKPSNTKVDKRVGGGGSGGGGS[no letters for human IgG1 Fc with changes]GSTSTSGRSANPRGGGSAPISSHCRLDKSNFQQPYITNRTFMLAKEASLADNNTDVRLIGEKLFHGVSMSERCYLMKQVLNFTLEEVLFPQSDRFQPYMQEVVPFLARLSNRLSTCHIEGDDLHIQRNVQKLKDTVKKLGESGEIKAIGELDLLFMSLRNACI
EC50 (read off the curve) of IL-10 secretion by COLO205 cells, intact fusion without uPA [1]: ~1 nM

B2: 087B03-L1-C4-L3-IL22 (other)
light: QAALTQPASVSGSPGQSITISCTGASGDVGAYNFVSWYQQHPGKAPKLIIYDVNKRPSGVSNRFSGSKSGNTASLTISGLQAEDEADYYCSSYTSTFSVVFGGGTKLTVLGQPKAAPSVTLFPPSSEELQANKATLVCLISDFYPGAVTVAWKADSSPVKAGVETTTPSKQSNNKYAASSYLSLTPEQWKSHRSYSCQVTHEGSTVEKTVAPTECS
heavy: EVQLVESGGGVVRPGGSLRLSCAASGFTFDDYGMNWVRQAPGKGLEWVSGVNWNGGTRDYAASVKGRFTISRDNAKNSLYLQMNSLRAEDTALYHCARGWYSGAAWNMGYWGRGTLVTVSSTSTSGRSANPRGASTKGPSVFPLAPCSKSTSGGTAALGCLVKDYFPEPVTVSWNSGALTSGVHTFPAVLQSSGLYSLSSVVTVPSSSLGTQTYICNVNHKPSNTKVDKRVGGGGSGGGGS[no letters for human IgG1 Fc with changes]GSTSTSGRSANPRGGGSAPISSHCRLDKSNFQQPYITNRTFMLAKEASLADNNTDVRLIGEKLFHGVSMSERCYLMKQVLNFTLEEVLFPQSDRFQPYMQEVVPFLARLSNRLSTCHIEGDDLHIQRNVQKLKDTVKKLGESGEIKAIGELDLLFMSLRNACI
EC50 (read off the curve) of IL-10 secretion by COLO205 cells, fusion pre-digested with uPA [2]: ~0.02 nM

B3: 087B03-L1-C3-L3-IL22 (other)
light: QAALTQPASVSGSPGQSITISCTGASGDVGAYNFVSWYQQHPGKAPKLIIYDVNKRPSGVSNRFSGSKSGNTASLTISGLQAEDEADYYCSSYTSTFSVVFGGGTKLTVLGQPKAAPSVTLFPPSSEELQANKATLVCLISDFYPGAVTVAWKADSSPVKAGVETTTPSKQSNNKYAASSYLSLTPEQWKSHRSYSCQVTHEGSTVEKTVAPTESS
heavy: EVQLVESGGGVVRPGGSLRLSCAASGFTFDDYGMNWVRQAPGKGLEWVSGVNWNGGTRDYAASVKGRFTISRDNAKNSLYLQMNSLRAEDTALYHCARGWYSGAAWNMGYWGRGTLVTVSSTSTSGRSANPRGASTKGPSVFPLAPSSKSTSGGTAALGCLVKDYFPEPVTVSWNSGALTSGVHTFPAVLQSSGLYSLSSVVTVPSSSLGTQTYICNVNHKPSNTKVDKRVGGGGSGGGGS[no letters for human IgG1 Fc with changes]GSTSTSGRSANPRGGGSAPISSHCRLDKSNFQQPYITNRTFMLAKEASLADNNTDVRLIGEKLFHGVSMSERCYLMKQVLNFTLEEVLFPQSDRFQPYMQEVVPFLARLSNRLSTCHIEGDDLHIQRNVQKLKDTVKKLGESGEIKAIGELDLLFMSLRNACI
EC50 (read off the curve) of IL-10 secretion by COLO205 cells, intact fusion without uPA [1]: ~1 nM

B4: 087B03-L1-C2-L3-IL22 (other)
light: QAALTQPASVSGSPGQSITISCTGASGDVGAYNFVSWYQQHPGKAPKLIIYDVNKRPSGVSNRFSGSKSGNTASLTISGLQAEDEADYYCSSYTSTFSVVFGGGTKLTVLGQPKAAPSVTLFPPSSEELQANKATLVCLISDFYPGAVTVAWKADSSPVKAGVETTTPSKQSNNKYAASSYLSLTPEQWKSHRSYSCQVTHEGSTVEKTVAPTECS
heavy: EVQLVESGGGVVRPGGSLRLSCAASGFTFDDYGMNWVRQAPGKGLEWVSGVNWNGGTRDYAASVKGRFTISRDNAKNSLYLQMNSLRAEDTALYHCARGWYSGAAWNMGYWGRGTLVTVSSTSTSGRSANPRGASTKGPSVFPLAPSSKSTSGGTAALGCLVKDYFPEPVTVSWNSGALTSGVHTFPAVLQSSGLYSLSSVVTVPSSSLGTQTYICNVNHKPSNTKVDKRVEPKSCGGGGSGGGGS[no letters for human IgG1 Fc with changes]GSTSTSGRSANPRGGGSAPISSHCRLDKSNFQQPYITNRTFMLAKEASLADNNTDVRLIGEKLFHGVSMSERCYLMKQVLNFTLEEVLFPQSDRFQPYMQEVVPFLARLSNRLSTCHIEGDDLHIQRNVQKLKDTVKKLGESGEIKAIGELDLLFMSLRNACI
EC50 (read off the curve) of IL-10 secretion by COLO205 cells, fusion pre-digested with uPA [2]: ~0.02 nM

B5: F4 monovalent IL-12 fusion Ustk (other)
light chain 1 (UstkVL): [no letters for about 200 residues]
heavy chain 1 (UstKVH, cleavable linker, constant region, GS linker, single-chain IL-12; knob): EVQLVQSGAEVKKPGESLKISCKGSGYSFTTYWLGWVRQMPGKGLDWIGIMSPVDSDIRYSPSFQGQVTMSVDKSITTAYLQWNSLKASDTAMYYCARRRPGQGYFDFWGQGTLVTVSSTSTSGRSANPRGASTKGPSVFPLAPSSKSTSGGTAALGCLVKDYFPEPVTVSWNSGALTSGVHTFPAVLQSSGLYSLSSVVTVPSSSLGTQTYICNVNHKPSNTKVDKRVGGGGSGGGGSEPKSCDKTHTCPPCPAPELRRGPSVFLFPPKPKDTLMISRTPEVTCVVVDVSHEDPEVKFNWYVDGVEVHNAKTKPREEQYNSTYRVVSVLTVLHQDWLNGKEYKCKVSNKALPAPIEKTISKAKGQPREPQVCTLPPSREEMTKNQVSLWCLVKGFYPSDIAVEWESNGQPENNYKTTPPVLDSDGSFFLYSKLTVDKSRWQQGNVFSCSVMHEALHNRYTQKSLSLSPGGSGGSGGSGGSGGSGGSIWELKKDVYVVELDWYPDAPGEMVVLTCDTPEEDGITWTLDQSSEVLGSGKTLTIQVKEFGDAGQYTCHKGGEVLSHSLLLLHKKEDGIWSTDILKDQKEPKNKTFLRCEAKNYSGRFTCWWLTTISTDLTFSVKSSRGSSDPQGVTCGAATLSAERVRGDNKEYEYSVECQEDSACPAAEESLPIEVMVDAVHKLKYENYTSSFFIRDIIKPDPPKNLQLKPLKNSRQVEVSWEYPDTWSTPHSYFSLTFCVQVQGKSKREKKDRVFTDKTSATVICRKNASISVRAQDRYYSSSWSEWASVPCSGGGGSGGGGSGGGGSGGGGSRNLPVATPDPGMFPCLHHSQNLLRAVSNMLQKARQTLEFYPCTSEEIDHEDITKDKTSTVEACLPLELTKNESCLNSRETSFITNGSCLASRKTSFMMALCLSSIYEDLKMYQVEFKTMNAKLLMDPKRQIFLDQNMLAVIDELMQALNFNSETVPQKSSLEEPDFYKTKIKLCILLHAFRIRAVTIDRVMSYLNAS
light chain 2 (anti-KLH VH with human kappa constant region, CrossMab): QVQLQQSGPQLVRPGASVKISCKASGYSFTSYWMHWVNQRPGQGLEWIGMIDPSYSETRLNQKFKDKATLTVDKSSSTAYMQLSSPTSEDSAVYYCALYGNYFDYWGQGTTLTVSSASVAAPSVFIFPPSDEQLKSGTASVVCLLNNFYPREAKVQWKVDNALQSGNSQESVTEQDSKDSTYSLSSTLTLSKADYEKHKVYACEVTHQGLSSPVTKSFNRGEC
heavy chain 2 (anti-KLH VL and modified IgG1 Fc; hole): DIQMTQSSSSFSVSLGDRVTITCKASEDIYNRLAWYQQKPGNAPRLLISGATSLETGVPSRFSGSGSGKDYTLSITSLQTEDVATYYCQQYWSTPYTFGGGTKLEVKSSASTKGPSVFPLAPSSKSTSGGTAALGCLVKDYFPEPVTVSWNSGALTSGVHTFPAVLQSSGLYSLSSVVTVPSSSLGTQTYICNVNHKPSNTKVDKRVGGGGSGGGGSEPKSCDKTHTCPPCPAPELRRGPSVFLFPPKPKDTLMISRTPEVTCVVVDVSHEDPEVKFNWYVDGVEVHNAKTKPREEQYNSTYRVVSVLTVLHQDWLNGKEYKCKVSNKALPAPIEKTISKAKGQPREPQVYTLPPSRCEMTKNQVSLSCAVKGFYPSDIAVEWESNGQPENNYKTTPPVLDSDGSFFLVSKLTVDKSRWQQGNVFSCSVMHEALHNHYTQKSLSLSP
EC50 (read off the curve) of the IL-12 luciferase reporter activity of the fusion pre-treated with MTSP1 [3]: ~0.3 nM
